Experimental data taken from the supplement of paper PMC11417369.
± gives the standard deviation of the averaged measurements. Some of the results follow.

system: PfAP2-G AP2 domain (GST-tagged); assay: gcPBM binding intensity (ln(normalized median fluorescence intensity)); higher = stronger DNA binding
How it was run: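 In this array assay, P. falciparum DNA-binding domains with a GST tag, expressed in E. coli, were applied for 1 h to primer-extended double-stranded 36-bp intergenic genomic probes and negative controls on an Agilent 4 × 180k array. Bound protein was visualised with Alexa488 anti-GST antibody at 488 nm. Binding intensity is the highest Masliner-normalised natural-log median intensity across replicate spots of either probe orientation.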

Sequence	gcPBM binding intensity (ln)
TTCTATTCAAATGCAAAATTATTAAATAAAAAATAA [GTGCAC_negctrl_site708]	9.71 ± 0.11
TATATAACCTATAGCACACATATATAATATATATTA [CACACA_site1834]	9.945 ± 0.035
CACCCACACCAACACACACACATATATATATATATA [CACACA_site362]	10.3 ± 0.57
AAATAAATTGATTCAACACACACATATGTAGGAAGT [CACACA_site9068]	10.19 ± 0.021
AATTTTTTTTGTCTCTGTACTTATAAAATATATATG [XGTACX_site4742]	11.5 ± 1
TTTTTTTTTTTCAAGCGTACAAAAAATATATTTAAA [XGTACX_site5327]	11.3 ± 0.96
GGAAAATATGTTTGTGTGCACAGCTAGCTATTTGTA [GTGCAC_site9637]	10.18 ± 0.014
AAAAAAAATTTTAATTGTACAAAAAAAAAAAATATA [XGTACX_site2259]	10.9 ± 0.49
TATATATGGGTAACCTTTTTTTTTTTTTTTCGAACA [CACACA_negctrl_site1303]	10.2 ± 0.18
ATTCATAATTTATTATGTACATATATATAATATATT [XGTACX_site1711]	11 ± 0.6
AAATAACAAATTTTTAAAATGTATATATATATATAT [TGCATGCA_negctrl_site219]	9.98 ± 0.52
AAGGATATAACATACACACACACACCCATATATATA [CACACA_site4142]	10.06 ± 0.035
AAAGAAATTATTTGTTGTACATATGTTATTTTTTTT [XGTACX_site7570]	11.2 ± 0.64
TGCAATTTAATATGAGTGCATATATTGAGAAAATAC	10.4 ± 0.38
TAAAACCTTTAAAATACATGCAGCATATATAAGTAA [TGCATGCA_site181]	9.63 ± 0.11
ATATCATGTTAAGATTGTACATATATATAATATATA [XGTACX_site7626]	10.9 ± 0.57
AATAAATTGGTATGTTGTACAAAGTAACCATCGATT [XGTACX_site2823]	11.1 ± 0.59
ATTGTAAGTAGACACACACACATATAGATGTATATA [CACACA_site6463]	10.065 ± 0.007
TATTTTTTTAATAACTGTACTTTTTTGTCAAATGGA [XGTACX_site4179]	11.7 ± 1.2
TTTATTTATTATTATGTACACACTATATTAAAACAT [CACACA_site700]	11.4 ± 0.87
TTATAATAAATATTCATATGTTCAAATATATATATA [CACACA_negctrl_site624]	9.69 ± 0.042
AAATATATTTCTTTTTTTCTTATTATTAATTTGCTT [CACACA_negctrl_site1483]	9.5 ± 0.28
TATAGATTTATATACACATGCATTTTGGTAAAGAAA [TGCATGCA_site953]	10.1 ± 0.19

Sequence	gcPBM binding intensity (ln)
GGCGTATGTGTATATACACACCCACGTATATATATA [CACACA_site9046]	10.3 ± 0.22
TGTTGTTTTATGTTGTATTGTAATATATTATATTAT [XGTACX_negctrl_site46]	10.3 ± 0.22
ATATATAACGGGCACACACACATTTACGTATGAATA [CACACA_site1833]	10.7 ± 0.43
TTAAAATTATAATACGTACACACCTTATCTTTTTGG [CACACA_site278]	11.5 ± 0.86
TATAAAATGTAATCTGAACACACATATTTTTTTAAT [CACACA_site8521]	9.85 ± 0.042
ATCATATATTATTTATGTACTTATTTATAATAATAT [XGTACX_site8257]	11.4 ± 0.91
TTAGGATTGAAGAGTTGTACATACCTCTTATTTGTT [XGTACX_site1376]	11 ± 0.64
CGTATTTTTGGACATGCATGTACAAATAATCTTATG [TGCATGCA_site973]	11.1 ± 0.6
AAATTTGGCAAACACACACACACACCCACAGAGACA [CACACA_site4490]	10.5 ± 0.54
AAACGTGTGTATAATAGTACATAATTATAACGTAAT [XGTACX_site421]	11 ± 0.71
ATATATGGAGCTTATACACACTTTTATATTTTAACA [CACACA_site7757]	10.06 ± 0.071
TTGGGCATAATGTCATGTACACAAATAATTCTTTAT [XGTACX_site861]	11.5 ± 1
TAAGTTTTGTTCTTTTGTACATATAAGTATAGATCG [XGTACX_site4735]	11 ± 0.61
AAAAAAATAATGTACACACACATATAGGTTTATATA [CACACA_site192]	11.3 ± 0.86
AATGTTTTTGTGAGATGTATAAATTTTATTTTATTT [XGTACX_negctrl_site413]	9.82 ± 0.23
TATAGTTTCATTCTTTGTACATATATATTATTATTA [XGTACX_site8527]	10.9 ± 0.49
TATAATGATGATGATAGTACGTATGAGTAAGAAAAA [XGTACX_site31]	11.1 ± 0.42
ATAAAAATATTTATTACACACATAAGCAAAAAAAAA [CACACA_site3484]	10.09 ± 0.035
TATTTTTATTTTTAAACCATATATATATATATATAT [CACACA_negctrl_site1560]	10.1 ± 0.42
AATGTGCAAACAAACTGTACTTTTTTTTTTTTTTTT [XGTACX_site928]	11.6 ± 0.93
AGATTTATTCATTCATGTACTTATTTATTTTATTTT [XGTACX_site6702]	11.2 ± 0.69
TATAAATAAAAGTGTACACACATTAAAATCAAACGT [CACACA_site5316]	11.7 ± 0.89
